Measurements from PubChem BioAssay AID1347165 (National Center for Advancing Translational Sciences (NCATS), 2019).
About 5,700 (2.6%) of roughly 220,000 compounds were called active. Inconclusive results, whose numbers are uncertain, are shown with a selection of clear calls. The call rests on the fitted dose curve; in most records, active means well fitted inhibition curve with a large enough effect; inconclusive means small, poorly fitted or top-dose-only effect; inactive means no such curve, though single readings can be large or run the other way. Potencies beside an inconclusive call are fits to weak or partial responses and may not hold up.
Further: nearly all actives have a fitted effect of over 70% in size.
Potency means the concentration at half of the fitted maximal effect; tags describe the fitted curve by direction and shape.
Wherever activity change, negative = inhibition is given: 0% is about no effect.

These compounds were tested against Lysine-specific demethylase 5B (Homo sapiens) (UniProt Q9UGL1) (assay: Primary screen for KDM5B Histone Demethylases FDH-coupled qHTS). Conditions: FDH-coupled NADH fluorescence (FDH is formaldehyde dehydrogenase); activity change, negative = inhibition: at 57.7 µM (top of the series) unless noted.
UniProt Q9UGL1, sequence (Q9UGL1 whole entry, looked up): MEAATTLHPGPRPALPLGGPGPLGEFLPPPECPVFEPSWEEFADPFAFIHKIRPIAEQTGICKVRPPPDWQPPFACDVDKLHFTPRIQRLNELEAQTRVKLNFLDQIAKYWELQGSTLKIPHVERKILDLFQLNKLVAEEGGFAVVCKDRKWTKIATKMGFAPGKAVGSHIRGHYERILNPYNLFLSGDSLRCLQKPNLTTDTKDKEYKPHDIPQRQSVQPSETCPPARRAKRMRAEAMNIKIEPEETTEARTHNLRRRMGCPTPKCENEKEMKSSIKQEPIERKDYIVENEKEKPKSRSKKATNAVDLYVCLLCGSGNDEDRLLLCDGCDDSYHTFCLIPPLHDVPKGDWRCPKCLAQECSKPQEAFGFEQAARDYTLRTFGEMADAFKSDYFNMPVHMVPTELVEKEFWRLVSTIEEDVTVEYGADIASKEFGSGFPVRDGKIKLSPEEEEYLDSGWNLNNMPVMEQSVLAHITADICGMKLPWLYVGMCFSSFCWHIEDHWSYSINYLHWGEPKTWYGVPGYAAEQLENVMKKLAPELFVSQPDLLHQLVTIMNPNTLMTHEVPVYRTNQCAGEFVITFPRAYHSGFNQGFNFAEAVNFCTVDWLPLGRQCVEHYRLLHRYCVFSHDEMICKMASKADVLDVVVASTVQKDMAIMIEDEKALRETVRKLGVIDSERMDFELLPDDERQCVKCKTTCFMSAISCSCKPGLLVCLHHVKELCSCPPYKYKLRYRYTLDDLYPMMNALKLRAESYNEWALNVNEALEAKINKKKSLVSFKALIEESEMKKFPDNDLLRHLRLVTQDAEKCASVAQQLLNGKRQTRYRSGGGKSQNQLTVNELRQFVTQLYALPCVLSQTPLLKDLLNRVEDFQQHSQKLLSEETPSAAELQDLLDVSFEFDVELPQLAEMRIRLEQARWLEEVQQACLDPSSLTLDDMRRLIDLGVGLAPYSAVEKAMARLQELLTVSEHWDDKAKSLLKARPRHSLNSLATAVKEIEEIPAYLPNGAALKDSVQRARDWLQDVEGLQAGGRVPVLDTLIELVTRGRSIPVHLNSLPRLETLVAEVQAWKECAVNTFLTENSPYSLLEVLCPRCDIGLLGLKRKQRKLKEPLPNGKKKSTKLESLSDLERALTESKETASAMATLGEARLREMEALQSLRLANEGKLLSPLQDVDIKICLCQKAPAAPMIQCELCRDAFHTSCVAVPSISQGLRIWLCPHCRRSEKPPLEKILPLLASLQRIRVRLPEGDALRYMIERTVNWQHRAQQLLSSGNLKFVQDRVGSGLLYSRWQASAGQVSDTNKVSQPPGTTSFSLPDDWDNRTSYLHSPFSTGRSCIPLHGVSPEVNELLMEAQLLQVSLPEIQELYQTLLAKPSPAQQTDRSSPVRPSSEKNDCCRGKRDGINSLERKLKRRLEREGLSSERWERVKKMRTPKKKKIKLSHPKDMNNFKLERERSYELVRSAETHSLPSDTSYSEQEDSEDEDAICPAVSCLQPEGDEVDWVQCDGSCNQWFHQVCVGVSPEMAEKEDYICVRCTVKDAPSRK
Method in brief: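 KDM5BΔAP (200 nM final) in 50 mM HEPES pH 7.5, 0.01% Tween-20 was preincubated 10 min at RT with compound over a concentration range. Substrate mix (H3K4me3 12.5 µM, α-KG 25 µM, Fe²⁺, ascorbate, NAD⁺, FDH) was added, and NADH fluorescence change over 30 min gave dose-response curves.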
For N#Cc1cccc(CN2CCc3nc(C(=O)NCc4ccncc4)oc3CC2)c1, the Potency was inconclusive: 12.6 µM [inhibitor, partial curve, poor fit]. In the case of CCc1noc(-c2ccn3c(CNC(=O)c4ccc(C)c(C)c4)nnc3c2)n1, the Potency is reported as active: 3.16 µM. For CCOc1ccc(C2NC(=O)c3c(COC)cc(C)nc3N2Cc2ccccc2)cc1OC (centres undefined), the Potency was inconclusive: 2.51 µM [inhibitor, partial curve, poor fit]. In the case of Cc1nnc(NC(=O)c2cc(-c3ccccc3)nc3ccccc23)s1, the Potency is reported as “inactive”. For CCCCc1cc(=O)oc2c(C)c(OCC(=O)NCc3ccncc3)ccc12, the Potency was “inactive”. CCCOc1ccc(CNC(=O)c2ccc(-n3c(C)cc4c3CCC(C)C4)cc2)cc1 (centres undefined) was tested, and the Potency was inconclusive: 28.2 µM [inhibitor, partial curve, poor fit]. With CC(C)(C)NC(=O)c1ccc(C(=O)NCC2CC2)cc1 the Potency was “inactive”. COc1cccc(CC(=O)N2CCN(c3cc(-c4cccs4)[nH]n3)CC2)c1 was tested, and the Potency was inconclusive: 15.8 µM [inhibitor, partial curve, poor fit]. For Cc1ccc(C2=NC3(CCN(C(=O)c4cccc(N(C)C)c4)CC3)ON2)cc1, the Potency was “inactive”. For CCN(CC)C(=O)Cn1nnc2sc(-c3ccccc3)cc2c1=O, the Potency was inconclusive: 28.2 µM [inhibitor, partial curve, poor fit]. With CC(C)N(Cc1ccccc1)C(=O)CCn1cnc2c1c(=O)n(C)c(=O)n2C the Potency was “inactive”. For Cc1ccc(CN2CCSc3ccc(C(=O)NCC(C)c4ccccc4)cc32)cc1 (centres undefined), the Potency was inconclusive: 15.8 µM [inhibitor, partial curve, poor fit]. For Cc1noc(C)c1Cn1cc2c3c(cccc31)[C@H](CC(C)C)N[C@H](C(=O)NCc1ccco1)C2, the Potency was inconclusive: 31.6 µM [inhibitor, single point]. For O=C1N[C@H](CC(=O)N2CCN(CCc3ccncc3)CC2)C(=O)Nc2ccccc21, the Potency was “inactive”. CCS[C@H]1CCN2C(=O)c3cc(-c4ccccc4)ccc3NC(=O)[C@H]12 was tested, and the Potency was inconclusive: 39.8 µM [inhibitor, single point]. With COc1ccc2c(c1)c(CN1CCCCCCN(C)C(=O)[C@@H]3CCC[C@@H]31)cn2C the Potency was inconclusive: 31.6 µM [inhibitor, partial curve, poor fit]. With O=c1cc(CN2CCN(c3ccccc3)CC2)c2cc(O)ccc2o1 the Potency was “inactive”. In the case of CCOC(=O)C(NC(=O)C1C2CC3CC(C2)CC1C3)C(=O)OCC (centres undefined), the Potency is reported as “inactive”. In the case of O=C(N[C@@H]1C[C@H](Cn2cc(C3CC3)nn2)[C@@H](O)[C@H]1O)c1cccnc1, the Potency is reported as inconclusive: 14.1 µM [inhibitor, partial curve]. With COc1ccc(NC(=O)CCCN2C(=O)CCn3nc(-c4cn(C)c5ccccc45)cc32)cc1OC the activity change, negative = inhibition was inconclusive: -32% [inhibitor]. COc1ccc(C(C)=O)cc1CN1CCC(CN(C)Cc2ccccc2)CC1 was tested, and the Potency was “inactive”. In the case of CCNC(=O)N1CC(C(=O)NC(C)c2ccccc2)CC(c2ccc(F)c(C)c2)C1 (centres undefined), the Potency is reported as “inactive”. With CCc1nnc(NC(=O)CCc2ncc(-c3ccccc3)o2)s1 the Potency was “inactive”. COc1ccc(NC(=O)C2CC(=O)N(c3n[nH]c4ccccc34)C2)cn1 (centres undefined) was tested, and the Potency was inconclusive: 31.6 µM [inhibitor, partial curve, poor fit]. In the case of Cc1noc(C)c1-c1cnc(Nc2ccc(F)cc2)c2c1CCO2, the Potency is reported as inconclusive: 35.5 µM [inhibitor, partial curve, poor fit]. In the case of CCOC(=O)c1cccc(Nc2cc(-c3ccccc3)ncn2)c1, the Potency is reported as inconclusive: 35.5 µM [inhibitor, partial curve, poor fit]. With COCc1ccc2c(c1)c(OC(C)(C)C(=O)NCCN(C)C)nn2Cc1ccccc1 the Potency was active: 31.6 µM. In the case of O=S(=O)(Nc1nc2ccccc2nc1NCc1ccccc1Cl)c1ccc(F)cc1, the Potency is reported as “inactive”. With CCc1ccccc1-n1nc(-c2c(C)nc3scc(CC(=O)N4CCCC4)n3c2=O)cc1C the Potency was active: 31.6 µM. With Cc1ccc(NC(=O)c2cc3c(cc2C)OCCCO3)c(C)c1 the Potency was “inactive”. In the case of Cc1ccc(NC(=O)N2CCN(C(=O)N3CC4CC(C3)[C@H]3CCCC(=O)N3C4)CC2)cc1C (some centres undefined), the Potency is reported as “inactive”. CC(C)(C)c1ccc(NC(=O)C2CCCC2)cc1 was tested, and the Potency was “inactive”. With Oc1ccc(NCc2ccccc2OCc2ccccc2F)cc1 the Potency was inconclusive: 2.51 µM [inhibitor, partial curve, poor fit]. CC(=O)c1ccc(NC(=O)CCCSc2nc(-c3ccco3)cc(C(F)(F)F)n2)cc1 was tested, and the Potency was inconclusive: 2.24 µM [inhibitor, full curve, poor fit]. For Cc1cccc(NC(=O)N2CC(Oc3ccc(-c4nc(-c5ccccc5)no4)cc3)C2)c1, the Potency was active: 12.6 µM. CCc1ccc(NC(=O)CSc2nc3ccccc3c(=O)n2CCNC(C)=O)cc1 was tested, and the Potency was inconclusive: 35.5 µM [inhibitor, single point]. With Fc1cccc(-c2cnc([C@@H]3COCCN3C3CCCCC3)[nH]2)c1 the Potency was inconclusive: 31.6 µM [inhibitor, partial curve, poor fit]. With Cc1ccc(NC(=O)C(C)n2nnc3sc4c(c3c2=O)CCCC4)cc1Cl (centres undefined) the Potency was inconclusive: 17.8 µM [inhibitor, partial curve, poor fit]. In the case of O=C1COc2ccc(NCc3cccs3)nc2CN1CCOc1ccccc1, the Potency is reported as inconclusive: 35.5 µM [inhibitor, single point]. With Cc1c(Cl)cccc1NC(=O)c1ncoc1-c1ccco1 the Potency was inconclusive: 31.6 µM [inhibitor, partial curve, poor fit]. O=C(Nc1cccc2ccccc12)c1cc(F)c(F)cc1Cl was tested, and the Potency was “inactive”. For COc1ccc(-c2ccccc2)cc1N1C(=O)[C@@H]2C[C@H]1CN2C(=O)C1(N)CC1, the Potency was inconclusive: 31.6 µM [inhibitor, partial curve, poor fit]. With COc1ccc(OCC(=O)Nc2nnc3n2CCS3)cc1 the Potency was inconclusive: 11.2 µM [inhibitor, partial curve, poor fit]. With Cc1c(CCC(=O)NCc2nc(-c3ccccc3)no2)c(=O)oc2cc(O)ccc12 the Potency was inconclusive: 39.8 µM [inhibitor, single point]. In the case of CCOC(=O)N1CCN(Cc2nc3cc(NC(=O)c4ccc(OC)cc4)ccc3n2C(C)C)CC1, the Potency is reported as “inactive”. With COCC1CCCCN1C(=O)c1ccc2oc(CCc3ccccc3)nc2c1 (centres undefined) the Potency was “inactive”. COc1ccccc1NC(=O)C(C)OC(=O)c1cccnc1 (centres undefined) was tested, and the Potency was “inactive”. Cc1ccc(NC(=O)Cn2c(-c3ccc(Cl)cc3)nc(C)c(CCO)c2=O)cc1 was tested, and the Potency was “inactive”. Cc1ccn2c(=O)c(C(=O)NCCCN3CCCCC3C)c(O)nc2c1 (centres undefined) was tested, and the Potency was inconclusive: 25.1 µM [inhibitor, partial curve, poor fit]. For Cc1ccc(NC(=O)CCSc2nc(-c3ccco3)cc(C(F)(F)F)n2)cc1F, the Potency was inconclusive: 39.8 µM [inhibitor, single point]. CC(Cc1cccs1)N(Cc1ccccc1)C(=O)c1cccc(S(=O)(=O)N(C)C)c1 (centres undefined) was tested, and the Potency was “inactive”. For COCc1ccc2c(c1)c(OC(C)(C)C(=O)NC1CC1)nn2CCC(C)C, the Potency was active: 39.8 µM. With Cn1cc(-c2cc3c(ccn3Cc3ccncc3)c(N3CCOCC3)n2)cn1 the Potency was “inactive”. In the case of Cc1ccc(NC(=O)c2nccnc2N)cc1I, the Potency is reported as inconclusive: 1.78 µM [inhibitor, partial curve, poor fit]. With COc1ccc(-n2c(COc3ccc(Cl)cc3)nnc2SCC(=O)C(C)(C)C)cc1 the Potency was “inactive”. With O=[N+]([O-])c1ccccc1NC(=S)N/N=C/c1ccc(O)c(O)c1 the Potency was inconclusive: 39.8 µM [inhibitor, single point]. O=C(CN1c2ccccc2Sc2ccccc21)N/N=C/c1ccc(Cl)cc1Cl was tested, and the Potency was inconclusive: 25.1 µM [inhibitor, partial curve, poor fit]. With C=C(C)CN(CC)C(=O)Cc1csc(C(C)C)n1 the Potency was “inactive”. In the case of CO[C@H]1[C@H](NC(=O)c2ccc(C)nc2)c2ccccc2C12CCNCC2, the Potency is reported as inconclusive: 17.8 µM [inhibitor, single point]. CCOc1ccc(-n2nc(CO)c(C(=O)NCCCc3ccccc3)n2)cc1 was tested, and the Potency was inconclusive: 35.5 µM [inhibitor, partial curve, poor fit]. For CN(C)CCNC(=O)CN1CCN(C(C(=O)O)c2c[nH]c3cc(Br)ccc23)CC1 (centres undefined), the Potency was “inactive”. CCOc1ccccc1CNC(=O)C1CCN(c2cc(C(F)(F)F)nc(C)n2)CC1 was tested, and the Potency was inconclusive: 31.6 µM [inhibitor, single point]. In the case of Cc1ccc(CN(C(=O)c2ccccc2F)c2ccccn2)o1, the Potency is reported as inconclusive: 15.8 µM [inhibitor, partial curve, poor fit]. With CC(C)c1ccc(NC(=O)c2ccc(F)c(S(=O)(=O)N3CCc4ccccc4C3)c2)cc1 the Potency was inconclusive: 35.5 µM [inhibitor, single point]. For CN1CC(=O)N(c2ccccc2F)Cc2c(NCCc3ccccc3F)ncnc21, the Potency was “inactive”. With CCOc1ccc(-c2cc(C(=O)Nc3ccc(NC(C)=O)cc3)no2)cc1 the Potency was inconclusive: 3.98 µM [inhibitor, full curve, poor fit]. With O=C(O)CCCNc1cc(N2CCN(C3CCCCC3)CC2)c2noc3c2c1C(=O)c1ccccc1-3 the Potency was inconclusive: 15.8 µM [inhibitor, partial curve, poor fit]. CCc1ccc(-c2cc(C(=O)NCc3ccco3)c3ccccc3n2)s1 was tested, and the Potency was inconclusive: 25.1 µM [inhibitor, partial curve, poor fit]. CN1CCC([C@@H]2CN(C(=O)c3ccc4cc[nH]c4c3)C[C@H]2C(N)=O)CC1 was tested, and the Potency was active: 20 µM.
